The record followed here is EP4524159A1, “ANTIBODY AND USE THEREOF” (priority 2022, dated 2023).

Series [1] in a line: Drug : antibody ratio (DAR) of antibody-vc-MMAE conjugates by hydrophobic HPLC. Conditions: humanized antibody-vc-MMAE conjugates. Here is the method:
The specific operation was to reduce each antibody and the control antibody CD27H10 (27H10 antibody in WO2018112334A1) with a 2-fold molar amount of […] (TECP) at 4 °C for 1 hour. A 7-fold molar amount of vcMMAE was then added for ligation at 4-25 °C for 1 h, and then the reaction mixture was dialyzed against 1 × PBS pH 8.0 and filtered for sterilization. Drug : antibody ratio (DAR) was detected by hydrophobic kurtosis with HLPC, and the molecular coupling results are shown in Table 14. Table 14 DAR values of antibody-drug conjugates
The humanized antibodies 1CP-125, 1CP-117 and 1CP-152 were subjected to linking to form ADC, and the linking process was the same as in example 18. Table 18 DAR values of antibody-drug conjugates

The nature of series [2]: Thermal stability detection of ADC molecules (UNcle: Tm, Tagg, DLS). The format is physicochemical. Here is the method: The 1CP-152 antibody and the control antibody CD27H10 were respectively linked to the vc-MMAE with reference to the method of example 18, and the target DAR was 4. After that, the molecular physical and chemical properties were detected and analyzed, and the specific analysis method was as follows:
(§1) The denaturation temperature (Tm value), aggregation temperature (Tagg value) and hydration kinetic diameter of ADC molecules were measured by UNcle multifunctional protein stability analysis system. Wherein, the Tm value was based on endogenous fluorescence spectroscopy method, and was fitted and calculated according to BCM algorithm, the Tagg value was measured by static light scattering (SLS) technology, and the hydration dynamics diameter was measured by dynamic light scattering (DLS) technology. • SEC purity detection: The purity of ADC molecules was analyzed by high performance liquid chromatography (HPLC). • Liquid chromatograph: Shimadzu LC-2030C Plus • chromatographic column: TSKgel G3000SWXL, 7.8× 300 mm, 5 µm, TOSOH • mobile phase: 61 mmol/L Na2HPO4, 39 mmol/L NaH2PO4, 200 mmol/L NaCl, pH6.8 • flow rate: 1.0 ml/min • Detection wavelength: UV 220 nm • column temperature: 30 °C • Sample chamber temperature: 10 °C • Injection volume: 20 µg • Isocratic running time: 30 min

The nature of series [3]: SEC purity (HPLC) of ADC molecules after storage at 2 to 8°C. The format is physicochemical. Conditions: for HMW / LMW / MP: 2 to 8°C, peak area normalization; for HMW: SEC-HPLC aggregate peak; for LMW: SEC-HPLC low molecular weight impurity peak; for MP: SEC-HPLC main (monomer) peak. As for the experimental part:
as §1
Quantitative analysis of the results was performed using peak area normalization method. If automatic integration failed due to reasons such as baseline drift, retention time variation, peak shape change or other reasons, integration parameters should be adjusted or the spectrum should be manually integrated. The main peak (MP) was the monomer peak, the peak with a retention time before the main peak was the aggregate peak (HMW), and the peak with a retention time after the main peak was the low molecular weight impurity peak (LMW).
In addition, 1CP-152-MMAE and CD27H10-MMAE were placed at 2 to 8°C for different time (0 days, 3 days, 5 days) to investigate the change in purity of the two molecules. […] Table 17 Long-term stability of ADC molecules

Where [4] appears, read: as printed in Table 19 (HCC1806).
[5] abbreviates: as printed in Table 20 (HCT116).

B1: 1CP-117-MMAE: humanized antibody 1CP-117 linked to vc-MMAE (conjugate)
heavy: QVQLVQSGSELKKPGASVKVSCKASGYTLTDFSMHWVRQAPGQGLEWMGWINTETGAPTYADDFKGRFVLSLDTSVSTAYLQISSLKAEDTAVYYCSRGRDYDPHFDYWGQGTLVTVSS[left out - human IgG1 constant region]
light: EIVLTQSPATLSLSPGERATLSCRASQSISDFLHWYQQKPGQSPRLLIKYASQSISGIPARFSGSGSGSDFTLTISSVEPEDFAVYYCQSAHSFPYTFGQGTKLEIKRTVAAPSVFIFPPSDEQLKSGTASVVCLLNNFYPREAKVQWKVDNALQSGNSQESVTEQDSKDSTYSLSSTLTLSKADYEKHKVYACEVTHQGLSSPVTKSFNRGEC
B1: the DAR in series [1] (setting [4]) and in series [1] (setting [5]) was 4.8 throughout.

B2: 1CP-152-MMAE: humanized antibody 1CP-152 linked to vc-MMAE, target DAR 4 (conjugate)
heavy: EVQLVESGGGLVQPGRSLRLSCTTSGLTFTHYHMSWVRQAPGKGLEWVAIIRNKAYGYTTDYSASVRGRFTISRDDSKSILYLQMNSLKTEDTAVYYCVREGGYGYDGTFAYWGQGTLVTVSS[left out - human IgG1 constant region]
light: DIQMTQSPSSLSASVGDRVTITCRASESVDNYGISFMNWFQQKPGQAPKLLIYAASNQGSGVPSRFSGSGSGTDFTLTISSMQPEDFATYYCQQSKEVPRTFGGGTKVEIKRTVAAPSVFIFPPSDEQLKSGTASVVCLLNNFYPREAKVQWKVDNALQSGNSQESVTEQDSKDSTYSLSSTLTLSKADYEKHKVYACEVTHQGLSSPVTKSFNRGEC
With B2, the DAR in series [1] (setting [4]) and in series [1] (setting [5]) was 4.5 throughout. In addition, the “Tagg/°C” value in series [2] (aggregation temperature, static light scattering) amounted to 64.1 °C. The “Tm/°C” value in series [2] (denaturation temperature, endogenous fluorescence) amounted to 76.6 °C. Also, the Mean particle size/nm in series [2] (hydration kinetic diameter, dynamic light scattering) is listed as 12.8 nm. Besides, the HMW in series [3] (D0), in series [3] (D3) and in series [3] (D5) was 1.9% each time. The figures for the LMW in series [3] (D0), in series [3] (D3) and in series [3] (D5) were 0.9%, 0.8% and 0.8%, respectively. Further, the MP in series [3] (D0) came to 97.2%; in series [3] (D3) it was 97.3%; in series [3] (D5) it was 97.3%. The change in purity entry in series [3] (after leaving at 2-8°C for 5 days, SEC-HPLC) was “did not change”.
